Experimental data reported in the supplement of paper PMC12217912.
The list shows a part of the results. Sequences were assembled here from the parent chain. Values near 0.05 are background.

B1: TEV protease; numbered along this chain (parent)
chain: MGESLFKGPRDYNPISSSICHLTNESDGHTTSLYGIGFGPFIITNKHLFRRNNGTLVVQSLHGVFKVKDTTTLQQHLVDGRDMIIIRMPKDFPPFPQKLKFREPQREERICLVTTNFQTKSMSSMVSDTSCTFPSGDGIFWKHWIQTKDGQCGSPLVSTRDGFIVGIHSASNFTNTNNYFTSVPKNFMELLTNQEAQQWVSGWRLNADSVLWGGHKVFMVKPEEPFQPVKEATQL

Variants of: B1
Test: raw area under fraction-flipped curve 0-4 h after induction (AUC4h, not background-subtracted), DNA-recorder readout of cleavage of the substrate (dimensionless); higher = more cleavage of the substrate by the protease variant
Settings: temperature: 34 °C; time window: 0-4 h after rhamnose induction
Experimental: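 In vivo DNA recorder in E. coli TOP10(DE3) ΔrhaA at 34 °C. Each TEVp single-site mutant (parent TEVp 0) is paired with a single-site variant of the 7-mer TEVs (canonical ENLYFQ|S). The substrate sits between flexible linkers in a Bxb1-sfGFP-TEVs-SsrA fusion, so cleavage stabilises Bxb1 and speeds flipping of a recombination array, read by NGS. The value is the raw area under the fraction-flipped curve over 0-4 h after rhamnose induction (AUC4h), with ≥20 reads per time point. It is not background-subtracted; inactive controls average about 0.047.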
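Also: Bxb1 expression induced with 0.2% (w/v) L-rhamnose at OD600 near 0.5, cultures sampled hourly, flipped fraction per protease–substrate barcode pair counted by paired-end Illumina sequencing.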

MGESLFKGPRDYNPISSSICHLTNASDGHTTSLYGIGFGPFIITNKHLFRRNNGTLVVQSLHGVFKVKDTTTLQQHLVDGRDMIIIRMPKDFPPFPQKLKFREPQREERICLVTTNFQTKSMSSMVSDTSCTFPSGDGIFWKHWIQTKDGQCGSPLVSTRDGFIVGIHSASNFTNTNNYFTSVPKNFMELLTNQEAQQWVSGWRLNADSVLWGGHKVFMVKPEEPFQPVKEATQL [E25A]
area with substrate ENLYFQA: 0.0937
area with substrate ENLYFQC: 0.134
area with substrate ENLYFQG: 0.108
area with substrate ENLYFQH: 0.0213
area with substrate ENLYFQI: 0.0583
area with substrate ENLYFQK: 0.0542
area with substrate ENLYFQL: 0.0486
area with substrate ENLYFQM: 0.0901
area with substrate ENLYFQN: 0.0747
area with substrate ENLYFQP: 0.0557
area with substrate ENLYFQQ: 0.079
area with substrate ENLYFQR: 0.0647
area with substrate ENLYFQS: 0.105
area with substrate ENLYFQT: 0.0651
area with substrate ENLYFQV: 0.0506
area with substrate ENLYFQW: 0.0661

MGESLFKGPRDYNPISSSICHLTNESVGHTTSLYGIGFGPFIITNKHLFRRNNGTLVVQSLHGVFKVKDTTTLQQHLVDGRDMIIIRMPKDFPPFPQKLKFREPQREERICLVTTNFQTKSMSSMVSDTSCTFPSGDGIFWKHWIQTKDGQCGSPLVSTRDGFIVGIHSASNFTNTNNYFTSVPKNFMELLTNQEAQQWVSGWRLNADSVLWGGHKVFMVKPEEPFQPVKEATQL [D27V]
area with substrate ENLYFQA: 0.0953
area with substrate ENLYFQC: 0.105
area with substrate ENLYFQD: 0.0667
area with substrate ENLYFQE: 0.0663
area with substrate ENLYFQG: 0.045
area with substrate ENLYFQH: 0.0631
area with substrate ENLYFQI: 0.066
area with substrate ENLYFQK: 0.0544
area with substrate ENLYFQL: 0.0745
area with substrate ENLYFQM: 0.0723
area with substrate ENLYFQN: 0.0674
area with substrate ENLYFQP: 0.0476
area with substrate ENLYFQR: 0.0419
area with substrate ENLYFQS: 0.0871
area with substrate ENLYFQT: 0.0683

MGESLFKGPRDYNPISSSICHLTNESDHHTTSLYGIGFGPFIITNKHLFRRNNGTLVVQSLHGVFKVKDTTTLQQHLVDGRDMIIIRMPKDFPPFPQKLKFREPQREERICLVTTNFQTKSMSSMVSDTSCTFPSGDGIFWKHWIQTKDGQCGSPLVSTRDGFIVGIHSASNFTNTNNYFTSVPKNFMELLTNQEAQQWVSGWRLNADSVLWGGHKVFMVKPEEPFQPVKEATQL [G28H]
area with substrate ENLYFQA: 0.0799
area with substrate ENLYFQC: 0.0843
area with substrate ENLYFQD: 0.0627
area with substrate ENLYFQH: 0.0701
area with substrate ENLYFQI: 0.064
area with substrate ENLYFQK: 0.0642
area with substrate ENLYFQM: 0.0658
area with substrate ENLYFQP: 0.0656
area with substrate ENLYFQR: 0.0541
area with substrate ENLYFQS: 0.0916
area with substrate ENLYFQV: 0.0552
area with substrate ENLYFQY: 0.0853

MGESLFKGPRDYNPISSSICHLTNESDSHTTSLYGIGFGPFIITNKHLFRRNNGTLVVQSLHGVFKVKDTTTLQQHLVDGRDMIIIRMPKDFPPFPQKLKFREPQREERICLVTTNFQTKSMSSMVSDTSCTFPSGDGIFWKHWIQTKDGQCGSPLVSTRDGFIVGIHSASNFTNTNNYFTSVPKNFMELLTNQEAQQWVSGWRLNADSVLWGGHKVFMVKPEEPFQPVKEATQL [G28S]
area with substrate ENLYFQA: 0.0671
area with substrate ENLYFQD: 0.0559
area with substrate ENLYFQH: 0.0817
area with substrate ENLYFQI: 0.0629
area with substrate ENLYFQK: 0.0662
area with substrate ENLYFQL: 0.0557
area with substrate ENLYFQM: 0.0754
area with substrate ENLYFQN: 0.0413
area with substrate ENLYFQP: 0.0557
area with substrate ENLYFQR: 0.0557
area with substrate ENLYFQS: 0.0883
area with substrate ENLYFQT: 0.0639
area with substrate ENLYFQV: 0.0604
area with substrate ENLYFQW: 0.0585
area with substrate ENLYFQY: 0.0861

MGESLFKGPRDYNPISSSICHLTNESDGQTTSLYGIGFGPFIITNKHLFRRNNGTLVVQSLHGVFKVKDTTTLQQHLVDGRDMIIIRMPKDFPPFPQKLKFREPQREERICLVTTNFQTKSMSSMVSDTSCTFPSGDGIFWKHWIQTKDGQCGSPLVSTRDGFIVGIHSASNFTNTNNYFTSVPKNFMELLTNQEAQQWVSGWRLNADSVLWGGHKVFMVKPEEPFQPVKEATQL [H29Q]
area with substrate ENLYFQA: 0.0968
area with substrate ENLYFQF: 0.0835
area with substrate ENLYFQI: 0.0682
area with substrate ENLYFQK: 0.0643
area with substrate ENLYFQL: 0.038
area with substrate ENLYFQM: 0.0784
area with substrate ENLYFQP: 0.0445
area with substrate ENLYFQR: 0.0666
area with substrate ENLYFQS: 0.106
area with substrate ENLYFQT: 0.0664
area with substrate ENLYFQV: 0.0803
area with substrate ENLYFQW: 0.0837
area with substrate ENLYFQY: 0.0589

MGESLFKGPRDYNPISSSICHLTNESDGWTTSLYGIGFGPFIITNKHLFRRNNGTLVVQSLHGVFKVKDTTTLQQHLVDGRDMIIIRMPKDFPPFPQKLKFREPQREERICLVTTNFQTKSMSSMVSDTSCTFPSGDGIFWKHWIQTKDGQCGSPLVSTRDGFIVGIHSASNFTNTNNYFTSVPKNFMELLTNQEAQQWVSGWRLNADSVLWGGHKVFMVKPEEPFQPVKEATQL [H29W]
area with substrate ENLYFQA: 0.0894
area with substrate ENLYFQC: 0.105
area with substrate ENLYFQD: 0.0776
area with substrate ENLYFQE: 0.0781
area with substrate ENLYFQG: 0.0988
area with substrate ENLYFQH: 0.0808
area with substrate ENLYFQK: 0.0598
area with substrate ENLYFQL: 0.06
area with substrate ENLYFQM: 0.106
area with substrate ENLYFQN: 0.0709
area with substrate ENLYFQQ: 0.0638
area with substrate ENLYFQR: 0.0601
area with substrate ENLYFQS: 0.109
area with substrate ENLYFQT: 0.0742
area with substrate ENLYFQV: 0.0663

MGESLFKGPRDYNPISSSICHLTNESDGYTTSLYGIGFGPFIITNKHLFRRNNGTLVVQSLHGVFKVKDTTTLQQHLVDGRDMIIIRMPKDFPPFPQKLKFREPQREERICLVTTNFQTKSMSSMVSDTSCTFPSGDGIFWKHWIQTKDGQCGSPLVSTRDGFIVGIHSASNFTNTNNYFTSVPKNFMELLTNQEAQQWVSGWRLNADSVLWGGHKVFMVKPEEPFQPVKEATQL [H29Y]
area with substrate ENLYFQA: 0.0941
area with substrate ENLYFQC: 0.127
area with substrate ENLYFQD: 0.0776
area with substrate ENLYFQF: 0.0589
area with substrate ENLYFQH: 0.0854
area with substrate ENLYFQI: 0.0554
area with substrate ENLYFQK: 0.0669
area with substrate ENLYFQL: 0.0717
area with substrate ENLYFQM: 0.125
area with substrate ENLYFQN: 0.081
area with substrate ENLYFQP: 0.0628
area with substrate ENLYFQQ: 0.089
area with substrate ENLYFQR: 0.0537
area with substrate ENLYFQS: 0.113
area with substrate ENLYFQT: 0.0771
area with substrate ENLYFQV: 0.0702
area with substrate ENLYFQW: 0.0541
area with substrate ENLYFQY: 0.0682

MGESLFKGPRDYNPISSSICHLTNESDGHTRSLYGIGFGPFIITNKHLFRRNNGTLVVQSLHGVFKVKDTTTLQQHLVDGRDMIIIRMPKDFPPFPQKLKFREPQREERICLVTTNFQTKSMSSMVSDTSCTFPSGDGIFWKHWIQTKDGQCGSPLVSTRDGFIVGIHSASNFTNTNNYFTSVPKNFMELLTNQEAQQWVSGWRLNADSVLWGGHKVFMVKPEEPFQPVKEATQL [T31R]
area with substrate ENLYFQA: 0.0362
area with substrate ENLYFQC: 0.0748
area with substrate ENLYFQG: 0.0676
area with substrate ENLYFQH: 0.0741
area with substrate ENLYFQI: 0.0531
area with substrate ENLYFQK: 0.044
area with substrate ENLYFQL: 0.057
area with substrate ENLYFQM: 0.0797
area with substrate ENLYFQN: 0.057
area with substrate ENLYFQP: 0.0544
area with substrate ENLYFQS: 0.0655
area with substrate ENLYFQY: 0.0626

MGESLFKGPRDYNPISSSICHLTNESDGHTTSFYGIGFGPFIITNKHLFRRNNGTLVVQSLHGVFKVKDTTTLQQHLVDGRDMIIIRMPKDFPPFPQKLKFREPQREERICLVTTNFQTKSMSSMVSDTSCTFPSGDGIFWKHWIQTKDGQCGSPLVSTRDGFIVGIHSASNFTNTNNYFTSVPKNFMELLTNQEAQQWVSGWRLNADSVLWGGHKVFMVKPEEPFQPVKEATQL [L33F]
area with substrate ENLYFQA: 0.0612
area with substrate ENLYFQC: 0.053
area with substrate ENLYFQD: 0.0613
area with substrate ENLYFQF: 0.0483
area with substrate ENLYFQG: 0.0643
area with substrate ENLYFQH: 0.0549
area with substrate ENLYFQI: 0.0656
area with substrate ENLYFQK: 0.0633
area with substrate ENLYFQM: 0.0597
area with substrate ENLYFQN: 0.0482
area with substrate ENLYFQP: 0.0576
area with substrate ENLYFQR: 0.0637
area with substrate ENLYFQS: 0.0595
area with substrate ENLYFQT: 0.072
area with substrate ENLYFQV: 0.0675
area with substrate ENLYFQW: 0.0644
